Measurements published in publication PMC5515408.
The list shows a part of the results. At the low end of the ranking the order means little.

The sequences below were run against MAX:MAX (p21) (UniProt P61244-2) (assay: protein-binding microarray (anti-MAX antibody)). Settings: PBM: 15 mM Tris-HCl pH 7.5, 100 mM KCl, 0.075% NP40, 7.5 mM beta-mercaptoethanol, 375 ng/ul BSA, 8 ng/ul poly(dA-dT):(dA-dT), 550 ng complex, 60 min, room …; high values mean tight binding; double strand, one strand shown; sequences stand for … in CCGGC…TTAATAGCTAAGATTACTATATCGACG.

| Sequence | binding signal (log2 normalized fluorescence) |
| --- | --- |
| TGAGAGGGGGTA | 1.39 |
| TGAAGCTAGGTA | -0.891 |
| TGAACGAGTGTA | 0.122 |
| TGACACCTAGTA | -0.239 |
| TGAATTAGTGTA | -0.804 |
| TGAGGCGCCGTA | -0.102 |
| TGATCAGCCGTA | -0.569 |
| TGACGCCACGTA | 0.637 |
| TGACACGTGTCT | 3.41 |
| TGAACGGAGGTA | -0.465 |
| CGACACGGGGTC | 2.95 |
| TGATAAAGCGTA | -0.982 |
| TGGGACGTGGTA | 1.54 |
| TGATGGACCGTA | -0.043 |
| TGAGAATCAGTA | -1.25 |
| TGAGGTGGTGTA | -0.0636 |
| TGACAAATCGTA | -0.658 |
| TGATACCTTGTA | -0.803 |
| TGAAGCCCCGTA | -0.692 |
| TGAGGTCGGGTA | -0.921 |
| GCAAACGTGGTA | 2.98 |
| TGAAGCGGAGTA | -1.01 |
| TGACGAGGTGTA | 0.156 |

| Sequence | binding signal (log2 normalized fluorescence) |
| --- | --- |
| TGAGCACGGGTA | 1.71 |
| TGACTGAATGTA | -0.252 |
| TGAGATAGTGTA | -1.02 |
| TTGGACGTGGTA | 0.937 |
| TGAAGATACGTA | -0.921 |
| TGACCCCGGGTA | -0.234 |
| TGGCACGCGGTA | 3.02 |
| AGACACGATGTA | 3.02 |
| TGAATGGGGGTA | 1.64 |
| TGACACGGTTTA | 1.12 |
| TGAAGACCTGTA | -0.291 |
| TTACACGTGTTA | 3.4 |
| TGAACTCGTGTA | 2.66 |
| TGATTGCCCGTA | -0.642 |
| TGAATGGTAGTA | 0.411 |
| AAACACGATGTT | 3.26 |
| TGAAGCAGAGTA | -0.731 |
| TGAATCCTGGTA | -0.765 |
| TGACTTTCCGTA | -0.822 |
| TAGGACGTGGTA | 1.63 |
| TGAGGGGCCGTA | -0.0149 |
| TGAAGAGAGGTA | -0.631 |
| TGACACGCAATA | 1.76 |

| Sequence | binding signal (log2 normalized fluorescence) |
| --- | --- |
| TGAGCTGCTGTA | -0.535 |
| TGACCCAGGGTA | -0.583 |
| TGACACAGAGTA | -0.449 |
| TGCCACGTGGTA | 3.42 |
| TGATTAAATGTA | -1.02 |
| TGACCGCAGGTA | 0.00405 |
| TGAGGCGGAGTA | -0.971 |
| TGAGTCGCAGTA | -0.657 |
| TGAGATTTCGTA | -1.43 |
| TGAAGGTCCGTA | -0.587 |
| TGAGGTTGTGTA | -0.704 |
| TGACCGGGCGTA | -0.448 |
| CGACCTTAAGGC | -0.248 |
| TGACAAGGTGTA | 0.739 |
| TGAAGTACACTT | -0.17 |
| TGACACGTGCTT | 3.34 |
| TGAGTCAAGGTA | -0.848 |
| TGAAGATAAGTA | -0.873 |
| TGATTACATGTA | 0.327 |
| TGACTGTGTGTA | 0.158 |
| TGAAAGTTGGTA | -1.08 |
| CGACACGTTGTT | 3.13 |
| TGACACGTGCGA | 3.02 |

| Sequence | binding signal (log2 normalized fluorescence) |
| --- | --- |
| TGATCACTAGTA | -0.29 |
| TGACACATCGTA | 0.536 |
| TGACGGTGCGTA | 0.45 |
| TGACACGTGTGG | 3.39 |
| AGAAACGCGGTA | 1.99 |
| TGATTTACGGTA | -0.917 |
| TGAACAAGGGTA | -0.416 |
| TGACAAGCGGTA | -0.214 |
| TGACCCGACGTA | -0.294 |
| TGAATTTAGGTA | -1.2 |
| TGATAAGGTGTA | -0.569 |
| TGAACGCTAGTA | -0.36 |
| TAACACGTGGTT | 3.27 |
| TGACGCCAAGTA | -0.36 |
| TGAGTGGGCGTA | 0.177 |
| TGAAACATCGTA | -0.242 |
| TGATGCCGTGTA | 0.348 |
| TGAGCAAGCGTA | -0.429 |
| TGATTATGCGTA | -0.486 |
| TGAAAGTGTGTA | 0.763 |
| TGACACGTCAAA | 1.08 |
| TGATCTTTAGTA | -1.24 |
| TGAATTCGAGTA | -0.99 |

| Sequence | binding signal (log2 normalized fluorescence) |
| --- | --- |
| TGACACGTGCCT | 3.18 |
| TAGCACGTGGCA | 3.24 |
| TGATCGATGGTA | -0.503 |
| TGACTAGGAGTA | -0.548 |
| TGAAAACATGTA | 1.71 |
| TGAAACAAAGTA | -0.719 |
| TGAACGATAGTA | -0.758 |
| TGAGTCGCTGTA | -1.01 |
| TGAGGGAGGGTA | 0.433 |
| TGAGTTATAGTA | -1.04 |
| TGAGTCATGGTA | 0.473 |
| TGACACGTAGTA | 1.19 |
| TGAGGATTGGTA | -0.564 |
| TGACCAAGGGTA | -0.538 |
| TGACCTGTGGTA | 0.594 |
| TGCCAGGTGGTA | 2.89 |
| TGACTCGCGGTA | 0.809 |
| TGACCTGGTGTA | 0.504 |
| TGATGAGGTGTA | -0.175 |
| TGAGTCGTCGTA | -1.07 |
| TGACTCTTTGTA | -0.868 |
| TGAAATAAAGTA | -0.877 |
| TGACCAGGAGTA | 0.00123 |

| Sequence | binding signal (log2 normalized fluorescence) |
| --- | --- |
| TGAATAATTGTA | -1.14 |
| TGAATACATGTA | 0.485 |
| TGACTAGATGTA | -0.59 |
| TCAAACGTGGTA | 3.03 |
| TGACACGCTATA | 2.77 |
| TCACACGAGGTT | 3.32 |
| TGACCATTCGTA | 0.158 |
| TGAACGGCTGTA | -0.4 |
| TGATGGGCCGTA | -0.215 |
| TGAATCGGGGTA | -0.384 |
| TGAAGTAACGTA | -0.536 |
| TGAGTCGGAGTA | -1.18 |
| TGAACCTGGGTT | -0.488 |
| TGAGCACTTGTA | -0.125 |
| TGCTGCGTGGTA | 2.49 |
| TGATTAAAAGTA | -1.12 |
| TGAACGCTTGTA | 0.08 |
| TGACACTGTGTA | 0.343 |
| TGAGAACCTGTA | -0.248 |
| TGATAGGTGGTA | -0.482 |
| TGATGGAGTGTA | -0.0719 |
| TTAAAGGAGCAC | -0.212 |
| TGATGGACGGTA | -0.228 |
